45 compounds from PMC4336329 (PLoS ONE, 2015) can be followed below.

Each structure is given as a SMILES string. Screen size: about 310,000 compounds; about 2,200 (0.71%) showed an effect of 50% or more. The effect is printed as a negative number. Some of the results follow.

human ether-à-go-go-related gene (hERG) potassium channel, sequence (Q12809 whole entry, looked up): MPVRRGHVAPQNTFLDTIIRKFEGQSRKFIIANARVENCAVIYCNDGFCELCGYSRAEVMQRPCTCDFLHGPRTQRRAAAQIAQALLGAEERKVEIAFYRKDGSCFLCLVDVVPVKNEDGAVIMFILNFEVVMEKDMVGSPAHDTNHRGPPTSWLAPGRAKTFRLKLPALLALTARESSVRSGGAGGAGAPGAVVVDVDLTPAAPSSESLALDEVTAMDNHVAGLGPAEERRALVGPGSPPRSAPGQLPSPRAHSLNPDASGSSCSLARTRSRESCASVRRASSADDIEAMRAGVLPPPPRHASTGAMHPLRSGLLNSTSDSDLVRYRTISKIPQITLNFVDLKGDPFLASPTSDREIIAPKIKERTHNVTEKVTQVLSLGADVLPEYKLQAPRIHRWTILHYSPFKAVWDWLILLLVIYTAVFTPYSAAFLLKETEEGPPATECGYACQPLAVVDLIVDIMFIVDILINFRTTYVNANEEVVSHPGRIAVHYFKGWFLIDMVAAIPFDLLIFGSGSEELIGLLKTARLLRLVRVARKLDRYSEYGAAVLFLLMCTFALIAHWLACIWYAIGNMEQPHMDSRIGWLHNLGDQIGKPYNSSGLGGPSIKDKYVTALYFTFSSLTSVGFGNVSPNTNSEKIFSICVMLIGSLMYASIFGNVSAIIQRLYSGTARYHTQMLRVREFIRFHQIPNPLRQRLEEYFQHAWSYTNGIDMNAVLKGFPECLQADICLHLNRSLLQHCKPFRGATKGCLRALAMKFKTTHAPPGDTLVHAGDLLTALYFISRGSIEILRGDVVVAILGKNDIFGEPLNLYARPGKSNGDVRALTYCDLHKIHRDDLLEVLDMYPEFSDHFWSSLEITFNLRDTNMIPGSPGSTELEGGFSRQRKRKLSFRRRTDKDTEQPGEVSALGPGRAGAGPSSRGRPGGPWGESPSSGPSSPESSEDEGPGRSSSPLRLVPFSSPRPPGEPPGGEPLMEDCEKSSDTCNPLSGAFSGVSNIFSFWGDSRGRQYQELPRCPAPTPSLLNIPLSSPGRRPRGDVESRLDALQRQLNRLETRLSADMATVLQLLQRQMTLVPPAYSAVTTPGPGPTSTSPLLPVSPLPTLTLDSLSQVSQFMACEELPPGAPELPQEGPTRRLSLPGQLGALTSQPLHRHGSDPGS

This test concerns the target human ether-à-go-go-related gene (hERG) potassium channel (human, UniProt Q12809). The experiment in a line: primary screen, population patch clamp on CHO cells stably expressing hERG.
`Cc1ccc(CN2CCN(Cc3cccc(-n4cccn4)c3)CC2CCO)cc1` (stereo not drawn): the “hERG current change (%, negative = inhibition) at 1uM” value is -80.1%. In the case of `Cc1nn(CC(=O)NCc2ccccc2)c(=O)c2cccn12`, the “hERG current change (%, negative = inhibition) at 1uM” value was found to be 7.1%. As for `O=C(CSc1ncnc2c1nnn2-c1ccc(F)cc1)NCC1CCCO1` (stereo not drawn), the figure is 9.34%; as for `Cc1cc(NC(=O)CS(=O)CC(=O)Nc2c(C)cccc2C)ccc1-n1cnnn1` (stereo not drawn), 3.63%; as for `CCN(CC)S(=O)(=O)c1ccc(OC)c(NC(=O)c2ccc([N+](=O)[O-])cc2)c1`, -21.9%. As for `CCOc1ccc(-c2c(C(=O)N/N=C(\C)c3ccco3)nnn2-c2nonc2N)cc1`, the “hERG current change (%, negative = inhibition) at 1uM” value is 17.1%.

As to `COc1ccc(CCNC(=O)c2cnc3ccccn3c2=O)cc1`, the “hERG current change (%, negative = inhibition) at 1uM” value was -1.13%. With `Cc1ccc(NC(=O)COC(=O)CCNS(=O)(=O)c2ccc(C)c(C)c2)cc1`, the “hERG current change (%, negative = inhibition) at 1uM” value is listed as 7.91%. Take `CC1=CC(c2ccccc2)NC(=S)N1` (stereo not drawn): the “hERG current change (%, negative = inhibition) at 1uM” value was found to be 8.58%.

`CN1CCN(C(=O)COc2ccc(N(C)S(=O)(=O)c3ccc(F)cc3)cc2)CC1`: the “hERG current change (%, negative = inhibition) at 1uM” value is given as 3.8%.

Take `O=S(=O)(NCc1cc(-c2ccccc2)no1)c1ccc(Cl)cc1`: the “hERG current change (%, negative = inhibition) at 1uM” value stood at 13.4%. For the compound `Cc1cc(NC(=O)/C=C/c2cccc(Cl)c2)n(-c2nc3ccccc3[nH]2)n1`, the “hERG current change (%, negative = inhibition) at 1uM” value was 13.4%. As for `N#CC1(C#N)C(C(=O)C23CC4CC(CC(C4)C2)C3)C12CCOCC2` (stereo not drawn), the “hERG current change (%, negative = inhibition) at 1uM” value was 6.44%.

For the compound `CC(=O)N1CCN(CCS(=O)(=O)c2ccc(Br)cc2)CC1`, the “hERG current change (%, negative = inhibition) at 1uM” value is 13%.

For the compound `O=C(CCS(=O)(=O)c1ccccc1)OCc1ccc([N+](=O)[O-])cc1`, the “hERG current change (%, negative = inhibition) at 1uM” value was -1.18%. For `COCCN1CCC(CNCc2c(C(=O)N3CCCCC3)nc3c(C)cccn23)C1` (stereo not drawn), the “hERG current change (%, negative = inhibition) at 1uM” value is listed as 2.68%. With `Cc1cc(C)c(C(=O)Nc2ccc(S(=O)(=O)Nc3ccccn3)cc2)c(C)c1`, the “hERG current change (%, negative = inhibition) at 1uM” value was 11.2%. For `Cc1ccc(S(=O)(=O)N2CCN(Cc3ccsc3)CC2)cc1`, the “hERG current change (%, negative = inhibition) at 1uM” value is 5.13%. For the compound `CCNC(=O)COc1ccc(CC)cc1`, the “hERG current change (%, negative = inhibition) at 1uM” value is reported as 8.49%. Consider `c1ccc(OCc2nn3c(Cn4cnc5ccccc54)nnc3s2)cc1`, for which the “hERG current change (%, negative = inhibition) at 1uM” value is 6.01%. For the compound `COc1ccc(CCN(C)S(=O)(=O)c2ccc(Cl)nc2)cc1OC`, the “hERG current change (%, negative = inhibition) at 1uM” value is given as 0.0341%. As for `COc1ccc(C(=O)NC(Oc2ccccc2)C(Cl)(Cl)Cl)cc1` (stereo not drawn), the figure is 9.45%; as for `CCc1ccc(N2CN=c3s/c(=C\c4ccccc4)c(=O)n3C2)cc1`, 13.3%.

Take `CC1CN(c2sc(S(C)(=O)=O)nc2S(=O)(=O)c2ccc(Cl)cc2)CC(C)O1` (stereo not drawn): the “hERG current change (%, negative = inhibition) at 1uM” value came to 16.2%. For the compound `O=C(COC(=O)/C=C/c1ccccc1)NC1CCS(=O)(=O)C1` (stereo not drawn), the “hERG current change (%, negative = inhibition) at 1uM” value was 5.3%. With `Cn1cc(CN2CCCC(C(=O)Nc3cccc(-c4cc5ccccc5[nH]4)c3)C2)cn1` (stereo not drawn), the “hERG current change (%, negative = inhibition) at 1uM” value is recorded as 10.6%. To `O/N=C/c1cc(Br)ccc1OCc1ccccc1F` belongs 4.28%; to `CCN(C(=O)CSc1nc2cc(C(=O)O)ccc2c(=O)n1Cc1ccccc1)c1ccccc1`, 11.6%; to `O=C1/C(=C\c2ccc(Cl)c(Cl)c2)N2CCC1CC2`, 12.2%. As for `COc1ccccc1OCCSc1nc2ccc([N+](=O)[O-])cc2s1`, the figure is 10.8%; as for `O=C(CSc1ccccn1)N1CCCC(Nc2ccc(F)c(F)c2)C1` (stereo not drawn), 12.3%; as for `CSc1ccccc1C(=O)Nc1nc2ccccc2[nH]1`, 6.83%. Take `N#Cc1ccccc1Cn1c(=O)oc2ccccc21`: the “hERG current change (%, negative = inhibition) at 1uM” value is 18.6%. To `Cc1cc2nccc(-c3ccc(F)cc3)n2n1` belongs 11.9%; to `COc1ccc(N(C(C)C(=O)N/N=C/c2ccc(OCC(C)C)cc2)S(C)(=O)=O)cc1` (stereo not drawn), 13.9%. Consider `CCCCn1c(N)c(N(CC(C)C)C(=O)c2ccc(-c3ccc(Cl)cc3)o2)c(=O)[nH]c1=O`, for which the “hERG current change (%, negative = inhibition) at 1uM” value is 6.83%. To `O=C(NC(=S)Nc1ccccc1[N+](=O)[O-])c1cncc(Br)c1` belongs 15.7%; to `CCCCN(C)S(=O)(=O)c1c(C)[nH]c(=O)[nH]c1=O`, 12.8%; to `C#CCNC(=O)C1=C[C@@H](c2ccc(Br)cc2)C[C@@H](OCCCCO)O1`, 8.59%. Consider `COC(=O)c1[nH]c2cc(OC)c(OC)cc2c1NC(=O)c1cccc(OC)c1`, for which the “hERG current change (%, negative = inhibition) at 1uM” value is -0.376%.

With `O=C(CCC(=O)NNC(=O)c1ccc(Cl)cc1Cl)NCc1ccccc1`, the “hERG current change (%, negative = inhibition) at 1uM” value was 5.65%. Consider `CN(Cc1ccccc1)C(=O)COC(=O)/C=C/c1ccco1`, for which the “hERG current change (%, negative = inhibition) at 1uM” value was 11.9%. For the compound `CCCn1c2c(c(O)c(C(=O)Nc3ccccc3)c1=O)CCCC2`, the “hERG current change (%, negative = inhibition) at 1uM” value came to 15.3%.

For the compound `CCOC(=O)c1cc(S(=O)(=O)N2CCN(c3ccccc3OC)CC2)cn1C`, the “hERG current change (%, negative = inhibition) at 1uM” value is reported as 14.8%.

In the case of `CC(C)CNC(=S)Nc1ccc(S(N)(=O)=O)cc1`, the “hERG current change (%, negative = inhibition) at 1uM” value is reported as 10.7%.
